Laboratory results from PubChem BioAssay AID686979 (National Center for Advancing Translational Sciences (NCATS), 2013).
About 50,000 (12%) of roughly 420,000 compounds were called active. The inconclusive results got no clear call from the source; some entries with a clear call stand among them for comparison. Calls follow the shape of the dose curve; as a rule, active = well fitted inhibition curve with a large enough effect; inconclusive = small, poorly fitted or top-dose-only effect; inactive = flat fitted curve, though single readings scatter. No potency is given beside an inconclusive call; the fits are too rough.

experiment: qHTS for Inhibitors of human tyrosyl-DNA phosphodiesterase 1 (TDP1): qHTS in cells in presence of CPT; settings: chicken DT40 Tdp1-/-;hTDP1 cells + 20 nM CPT, ATP luminescence, 48 h; activity change, negative = growth inhibition: at 46.2 µM (top of the series) unless noted; also: nearly all actives have a fitted effect of over 55% in size
Procedure, shortened: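 Chicken DT40 Tdp1-/- cells complemented with human TDP1, 400 cells/well, exposed to compounds plus 20 nM camptothecin for at least 48 h at 37 C; viability read as ATP content by CellTiter-Glo luminescence.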
% is scaled to controls: 0 for no effect and ±100 for the full control effect; potency is read from the fitted curve at half-maximal effect; tags tell the direction and shape of the fitted curve.

Q: With `CC(=O)c1ccc(NC(=O)Nc2cccnc2)cc1` as the compound, how does the Potency read?
A: inconclusive [inhibitor, single point]

Q: For `CC(CN)(NS(=O)(=O)c1ccccc1)c1ccccc1` (stereo not given), which Potency is on record?
A: inconclusive [inhibitor, single point]

Q: For `CCS(=O)(=O)N1CCC(C(=O)NCCc2ccccc2)CC1`, which “activity change, negative = growth inhibition” value is on record?
A: inactive: 1.22%

Q: For `COCCN1Cc2cccc(C(=O)Nc3ccc(C(=O)OC)cc3)c2C1=O`, which “activity change, negative = growth inhibition” value is on record?
A: inactive: -4.79%

Q: For `Cc1ccc(NC(=O)c2cc(S(=O)(=O)N3CCC(C)CC3)cn2C)cc1Cl`, which “activity change, negative = growth inhibition” value is on record?
A: inactive: -13.9%

Q: Which Potency does the source give for `Cc1cc2cc(CCNS(=O)(=O)c3ccc(Br)cc3)c(=O)[nH]c2cc1C` here?
A: inconclusive [inhibitor, single point]

Q: For `COc1ccccc1-c1ccc(Nc2cccc(C(C)=O)c2)nn1`, which activity change, negative = growth inhibition is on record?
A: inconclusive: -30.9% [inhibitor]

Q: Which Potency does the source give for `O=C(CCCc1nc(-c2ccccc2)no1)NCc1cccnc1` here?
A: inconclusive [inhibitor, partial curve]

Q: Which Potency does the source give for `CCOc1ccc(-c2c(C)nn3c(C)c(C(=O)Nc4cccc(Cl)c4C)cnc23)cc1OCC` here?
A: inconclusive [inhibitor, partial curve]

Q: For `Nc1nc(-c2ccccc2Cl)cs1`, which “activity change, negative = growth inhibition” value is on record?
A: inactive: -9.54%

Q: With `COc1ccc(NS(=O)(=O)c2cc(N/C(=N\S(=O)(=O)c3ccccc3)c3ccc(F)cc3)ccc2Cl)cc1` as the compound, how does the Potency read?
A: inconclusive [inhibitor, single point]

Q: Which Potency does the source give for `O=C(C[n+]1cccc(Br)c1)c1cc(Cl)ccc1Cl` here?
A: inconclusive [inhibitor, single point]

Q: With `O=C(Nc1ccc(F)cc1F)c1cc2ncc(CCCl)cn2n1` as the compound, how does the Potency read?
A: inconclusive [inhibitor, single point]

Q: Which Potency does the source give for `Cc1ccc(NC(=O)/C(C#N)=C\c2ccc(-c3ccc(Cl)cc3)o2)c(C)c1` here?
A: active: 11.6 µM

Q: Which “activity change, negative = growth inhibition” value does the source give for `CCOC(=O)C1=C(COC(=O)c2cc(S(=O)(=O)N(C)C)ccc2C)NC(=O)NC1C` (stereo not given) here?
A: inactive: -19.3%

Q: For `COc1ccccc1-c1cccc(-c2nc(C(=O)Nc3nccs3)cc3c2[C@H](CCO)N(C(C)=O)C3)c1`, which Potency is on record?
A: active: 6.51 µM

Q: Which Potency does the source give for `O=C(Nc1ccccc1F)Nc1ccccc1F` here?
A: inconclusive [inhibitor, partial curve]

Q: Which Potency does the source give for `COc1ccccc1C(=O)Nc1ccc2nc(SCC(=O)N3CCCC3)sc2c1` here?
A: inconclusive [inhibitor, partial curve]

Q: For `Cc1ccc2nc(-c3ccsc3)c(Nc3ccc(C(C)C)cc3)n2c1`, which “activity change, negative = growth inhibition” value is on record?
A: inactive: -18.9%

Q: With `CCCCc1cc(O)c(CCCC)c(O)c1` as the compound, how does the Potency read?
A: active: 20.6 µM

Q: With `O=C(CNS(=O)(=O)c1cccc(Br)c1)NCCCc1ccccc1` as the compound, how does the Potency read?
A: inconclusive [inhibitor, partial curve]

Q: For `COc1cccc(N=C2SC(CC(=O)Nc3ccccc3)C(=O)N2Cc2ccccn2)c1` (stereo not given), which Potency is on record?
A: inconclusive [inhibitor, single point]

Q: Which “activity change, negative = growth inhibition” value does the source give for `N[C@@H]1CONC1=O` here?
A: inactive: -1.09%

Q: Which “activity change, negative = growth inhibition” value does the source give for `COc1ccc(N(CC(=O)NCc2ccc(F)cc2)C(=O)c2snc(C(N)=O)c2N)cc1` here?
A: inactive: 5.01%

Q: For `O=C(c1cc(Cl)nc2ccccc12)N1CCN(Cc2ccc3c(c2)OCO3)CC1`, which Potency is on record?
A: inconclusive [inhibitor, single point]

Q: For `Cc1ccc(C(=O)NCc2ccncc2)cc1S(=O)(=O)Nc1cccc(C)c1C`, which “activity change, negative = growth inhibition” value is on record?
A: inactive: -10.3%

Q: Which “activity change, negative = growth inhibition” value does the source give for `CCc1ccc(NC(=O)C(=O)NCCc2csc(-c3cccc(F)c3)n2)cc1` here?
A: inactive: -3.24%

Q: With `COc1cc(F)c(S(=O)(=O)N2CCOc3ccccc32)cc1OC` as the compound, how does the Potency read?
A: inconclusive [inhibitor, single point]

Q: For `CCCCS(=O)(=O)N1CCCC(C(=O)NCCc2ccccc2)C1` (stereo not given), which “activity change, negative = growth inhibition” value is on record?
A: inactive: -6.69%

Q: For `Cc1cccc(NC(=O)C2CCN(c3nc(C)cc(C)n3)CC2)c1`, which Potency is on record?
A: inconclusive [inhibitor, partial curve]

Q: Which “activity change, negative = growth inhibition” value does the source give for `COc1ccc(S(=O)(=O)N(C)CC(=O)Nc2ccccc2C(F)(F)F)cc1` here?
A: inactive: -19.8%

Q: Which Potency does the source give for `Cc1ccc(C)c(Nc2nnc(-c3ccc(C)c(S(=O)(=O)N4CCN(C)CC4)c3)c3ccccc23)c1` here?
A: inconclusive [inhibitor, single point]

Q: For `Cc1cc(C)c(S(=O)(=O)NCCSCc2ccco2)c(C)c1`, which Potency is on record?
A: inconclusive [inhibitor, single point]

Q: With `COc1ccc(Cc2nnc(SCC(=O)c3c(N)n(C4CC4)c(=O)[nH]c3=O)o2)cc1` as the compound, how does the Potency read?
A: inconclusive [inhibitor, partial curve]

Q: With `COc1ccc(CNC(=O)COC(=O)/C=C/c2cccs2)cc1` as the compound, how does the “activity change, negative = growth inhibition” value read?
A: inactive: 7.04%

Q: Which Potency does the source give for `CCOC(=O)C1CCN(C(C(=O)NC2CCCC2)c2ccc(C)cc2)CC1` (stereo not given) here?
A: inconclusive [inhibitor, single point]

Q: For `COc1cccc(NC(=O)N2CCCC2C(=O)NC23CC4CC(CC(C4)C2)C3)c1` (stereo not given), which “activity change, negative = growth inhibition” value is on record?
A: inactive: -13.3%

Q: Which “activity change, negative = growth inhibition” value does the source give for `CSCCC(NS(=O)(=O)c1ccccc1)C(=O)OC(C)C(=O)Nc1ccc(Cl)cn1` (stereo not given) here?
A: inactive: -2.13%

Q: For `O=C1N/C(=N\N=C\c2ccc3ncccc3c2)SC1Cc1ccc(SC(F)F)cc1` (stereo not given), which “activity change, negative = growth inhibition” value is on record?
A: inactive: -15%

Q: Which “activity change, negative = growth inhibition” value does the source give for `Cc1cc(Br)ccc1SCC(=O)OCC(=O)NC1CCCC1` here?
A: inactive: -4.69%

Q: With `CCOC(=O)CCCCCC(=O)Nc1ccc2c(c1)C(=O)N([C@H](C)CO)C[C@H](C)[C@H](CN(C)C(=O)C1CCCCC1)OCCCC[C@@H](C)O2` as the compound, how does the Potency read?
A: inconclusive [inhibitor, single point]

Q: With `CCN(CC)C(=O)Cn1c(=O)n(CCCC(=O)NCc2ccccc2)c(=O)c2sccc21` as the compound, how does the “activity change, negative = growth inhibition” value read?
A: inactive: -12.1%

Q: With `CCOC(=O)CSc1nnc(COc2ccc3ccccc3c2)o1` as the compound, how does the Potency read?
A: inconclusive [inhibitor, single point]

Q: With `CCOc1ccc(NC(=O)CSc2oc(-c3cccs3)nc2S(=O)(=O)c2ccc(C)cc2)cc1` as the compound, how does the Potency read?
A: active: 11.6 µM

Q: For `CCn1nc(C)c2c(-c3ccccc3)cc(=O)n(C(C)C(=O)Nc3cccc(F)c3)c21` (stereo not given), which Potency is on record?
A: inconclusive [inhibitor, single point]

Q: For `CCn1cnc2c1c(=O)n(CC(=O)NN)c(=O)n2Cc1ccccc1`, which “activity change, negative = growth inhibition” value is on record?
A: inactive: 16.8%

Q: Which Potency does the source give for `CCOC(=O)C1CCN(Cc2cc(C(C)C)c(O)c(C(C)C)c2)CC1` here?
A: active: 9.2 µM

Q: With `O=C(O)c1sccc1Oc1ccc(NS(=O)(=O)c2ccccc2)cc1` as the compound, how does the “activity change, negative = growth inhibition” value read?
A: inactive: 25.8%

Q: For `Cc1onc(-c2ccccc2Cl)c1C(=O)NCCCc1ccccc1`, which Potency is on record?
A: inconclusive [inhibitor, full curve]

Q: Which Potency does the source give for `O=C(O)c1ccc(N=Cc2c(O)ccc3oc4c(c23)CCCC4)cc1` here?
A: active: 16.4 µM

Q: For `Cc1ccc(C2=CC(c3ccccc3C)n3c(nc4ccccc43)N2)cc1` (stereo not given), which Potency is on record?
A: inconclusive [inhibitor, single point]

Q: For `O=C(CN1CCN(Cc2ccccc2)CC1)N/N=C/c1ccc(Br)s1`, which Potency is on record?
A: inconclusive [inhibitor, single point]

Q: For `CCCCCCCN1C(Nc2ccccc2)=NC[C@@H]1CC(C)C`, which Potency is on record?
A: active: 11.6 µM

Q: Which Potency does the source give for `N#CC1=C(N)Oc2cc(N)ccc2C1c1cccc(F)c1` (stereo not given) here?
A: inconclusive [inhibitor, single point]

Q: Which Potency does the source give for `COc1ccc(C(=O)NNC(=S)NC(=O)c2ccc(Cl)cc2)cc1` here?
A: inconclusive [inhibitor, single point]

Q: For `COc1ccc(NC2SC(=O)N(CC(=O)O)C2=O)cc1` (stereo not given), which “activity change, negative = growth inhibition” value is on record?
A: inactive: -19.2%

Q: For `CCCCC[n+]1ccn(C2=C([O-])c3ccccc3C(=O)/C2=N\S(=O)(=O)c2ccccc2)c1`, which Potency is on record?
A: active: 14.6 µM

Q: With `NS(=O)(=O)c1ccc(Nc2c([N+](=O)[O-])cncc2[N+](=O)[O-])cc1` as the compound, how does the Potency read?
A: inconclusive [inhibitor, single point]

Q: With `O=C(CSc1ccccc1C(=O)O)c1ccc([N+](=O)[O-])cc1` as the compound, how does the Potency read?
A: inconclusive [inhibitor, single point]

Q: Which Potency does the source give for `Cc1cccc(C(=O)O/N=C/c2c(Cl)n(C)c3ccccc23)c1` here?
A: inconclusive [inhibitor, single point]

Q: With `O=C(Nc1ccc(F)cc1)c1cc2ccccc2o1` as the compound, how does the “activity change, negative = growth inhibition” value read?
A: inactive: -26.2%

Q: With `COC(=O)c1ccc(/C=N/NC(=O)CC(=O)NC(C)C)cc1` as the compound, how does the “activity change, negative = growth inhibition” value read?
A: inactive: -7.48%

Q: Which Potency does the source give for `Cc1cccc(NC(=S)/N=C(\N)Nc2nc(C)c3ccc(C)cc3n2)c1` here?
A: active: 14.6 µM

Q: For `Cc1cc(C)cc(NC(=S)NCc2ccc(F)cc2)c1`, which Potency is on record?
A: inconclusive [inhibitor, single point]

Q: With `CCOC(=O)c1cccc(C2=CC(=O)C[C@H](c3ccc(OC)c(OC)c3)C2)c1` as the compound, how does the Potency read?
A: inconclusive [inhibitor, single point]

Q: Which “activity change, negative = growth inhibition” value does the source give for `CCCc1c2oc(C(=O)O)cc(=O)c2cc2c(=O)cc(C(=O)O)n(CC)c12` here?
A: inactive: 16.1%

Q: For `COc1cccc(N(C(=O)c2snc(C(N)=O)c2N)C(C(=O)NCC2CCCO2)c2ccc(C)o2)c1` (stereo not given), which “activity change, negative = growth inhibition” value is on record?
A: inactive: -24.5%

Q: For `CCCCc1cc(=O)oc2cc(OCC(=O)N(CC)CC)c(Cl)cc12`, which Potency is on record?
A: inconclusive [inhibitor, single point]

Q: With `O=C(CSc1nnc2scc(-c3ccc(Cl)cc3)n12)NCc1ccc2c(c1)OCO2` as the compound, how does the “activity change, negative = growth inhibition” value read?
A: inactive: 6.03%

Q: Which Potency does the source give for `COc1ccc(OC)c(NC(=S)N2CCc3ccccc3C2)c1` here?
A: inconclusive [inhibitor, single point]

Q: For `Cc1ccn2c(Nc3ccccc3C)c(-c3ccc(N4CCOCC4)cc3)nc2c1`, which Potency is on record?
A: active: 18.4 µM

Q: For `O=C(N/N=C/C=C\c1ccccc1[N+](=O)[O-])c1ccccn1`, which activity change, negative = growth inhibition is on record?
A: inconclusive: -30.7% [inhibitor]

Q: With `COc1ccc2c(c1)C(O)C(CO)C(C(=O)O)C2` (stereo not given) as the compound, how does the “activity change, negative = growth inhibition” value read?
A: inactive: 11.4%

Q: With `COc1ccccc1NC(=O)c1sc2nc3c(c(C(F)(F)F)c2c1N)CN(C(C)=O)CC3` as the compound, how does the Potency read?
A: inconclusive [inhibitor, single point]

Q: Which Potency does the source give for `CC(=O)c1c(C)[nH]c(C(=O)OCC(=O)NCc2ccc3c(c2)OCO3)c1C` here?
A: inconclusive [inhibitor, single point]
